Tested on: binding of RBD to ACE2
Experiment: competitive ELISA: ability of antiserum to block the binding of RBD and ACE2
Details: antiserum of immunized cynomolgus monkeys; FIG. 9
Description: The neutralizing antibody was detected by competitive ELISA method, and the specific determination method is as follows: an ELISA plate was coated overnight with 10 µg/mL ACE2, and then blocked for use. The anti-peptide serum was diluted in different degrees with sample dilution buffer (1:128, 1:64, 1:32, 1:16, 1:8, and 1:4), then the diluted anti-serum in different degrees were incubated with Bio-RBD of 12 µg/mL at 37° C. for 1 hour. Then 100 µL of the reaction mixture was added into the wells of the blocked ACE2-coated ELISA plate, and incubated at 37° C. for 1 hour. Then the plate was washed, and HRP-Streptavidin A diluted in 1:10000 was added and incubated at 37° C. for 1 hour. After washing the plate, TMB was added for color development, and the plate was read at 450 nm wavelength after termination.

AKFVAAWTLKAAAGGGGYGFQPTNGVGYQPGGGGNYLYRLFRKSNLKPF [LP2]
ability of antiserum to block the binding of RBD to ACE2: has the ability to block the binding of RBD to ACE2

From patent publication US20230338510A1, “NOVEL C[…] EPITOPE P[…] AND USE THEREOF” (SHANGHAI INSTITUTE OF MATERIA MEDICA, CHINESE ACADEMY OF …, priority 2020, published 2023)
